Read counts are not given, so values of variants with three or more changes are uncertain.
B1: CPEB3 Ribozyme (parent)
chain: UAACAGGGGGCCACAGCAGAAGCGUUCACGUCGCAGCCCCUGUCAGAUUCUGGUGAAUCUGCGAAUUCUGCUGUAUAUCUC

Variants of: B1
Assay: self-cleavage, relative activity (ratio to wild type); higher = more cleavage; in vitro, sequencing
In short: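 After error-prone PCR and barcoding, CPEB3 ribozyme mutant libraries were transcribed with T7 RNA polymerase at 37°C for 5 hours, then given 15 min with DNase I before an EDTA stop, and they cleaved during both steps. Reverse transcription with template switching preceded Illumina sequencing. Relative activity divides a variant's cleaved/total read fraction by the unmutated ribozyme's. At least 5 reads were required per variant, and three batches were averaged.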

Variant | self-cleavage
UAACAGGGGGCCUCAGCAGAGGCGUUCACGUCGCAGCCCCUGCCAGAUUCUGGUGAAUCUGCGGAUUCUGCUGUAUAUCCC [A13U A21G U43C A64G U80C] | 0.08
UAACAGGGGGCCUCAGCAGUAGCGUUCACGUCGCAGCCCCUGCCAGAUUCUGGCGAAUCUGCGAAUUCUGCUGUAUAUCUC [A13U A20U U43C U54C] | 0.12
UAACAGGGGGCCUCAGCAGAGGCGAUCACGUCGCAGCCCCUGUCAGAUUCUGGUGAAUCUGCGAACUCUGCAGUAUAUCUC [A13U A21G U25A U66C U72A] | 0.14
UAACAGGGGGCCUCAGCAGAGGCGUUCGCGUCGCAGCCCCUGUCAGAUUCUGGUGAAUCUGCGAAUUCUGCUGUAUAUCUC [A13U A21G A28G] | 0.17
UAACAGGGGGCCUCAGCAGAGGCGUUCGCGUCGCAGCCCCUGUCGGAUUCUGGUGAAUCUGCGAAUUCUGCUGUAUAUCUC [A13U A21G A28G A45G] | 0.12
UAACAGGGGGCCUCAGCAGUAGCGUUCACGUCGCAGCCCCUGUCAGAUUCUGGUGAAUCUGCGAAUCCUGCUGUAUAUCUC [A13U A20U U67C] | 0.2
UAACAGGGGGCCUCAGCAGUAGCGUUCGCGUCGCAGCCCCUGUCAGAUUCUGGUGAAUCUGCGAAUUCUGCCGUAUAUCUC [A13U A20U A28G U72C] | 0.17
UAACAGGGGGCCUCAGCAGUAGCGUUCGCGUCGCAGCCCCUGUCAGAUUCUGGUGAAUCUGCGGAUUCUGCUGUAUAUCUC [A13U A20U A28G A64G] | 0.18
UAACAGGGGGCCUCAGCAGUAGCGUUCACGUCGCAGCCCCUGUCAGAUUCUGGUGAAUCUGCGAAUUCAGCUGUAUACCUC [A13U A20U U69A U78C] | 0.24
UAACAGGGGGCCUCAGCAGAGGCGUUCACGCCGCAGCCCCUGUCAGAUUCUGGUGAAUCUGCGAAUUAUGCUGUAUAUCUC [A13U A21G U31C C68A] | 0.06
UAACAGGGGGCCUCAGCAGAGGCGUUCACGUCGCAGCCCCUGUCAGAUUCUGGUGAAUCUGCGAAUUUUGCUGUAUAUCUC [A13U A21G C68U] | 0.13
UAACAGGGGGCCUCAGCAGAGGCGUUCACGUCGCAGCCCCUGUCAGGUUCUGGAGAAUCUGCGGAUUCUGCUGUAUAUCCC [A13U A21G A47G U54A A64G U80C] | 0.22
UAACAGGGGGCCUCAGCAGAGGCGCUCACGUCGCAGCCCCUGUCAGAUCCUGGUGAAUCUGCGAAUUCUGCUGUAUAUCUC [A13U A21G U25C U49C] | 0.12
UAACAGGGGGCCUCAGCAGAGGCGUACACGUCGCAGCCCCAGUCCGAUUCUGGUGAAUCUGCGAAUUCUGCUGUAUAUCUC [A13U A21G U26A U41A A45C] | 0.07
UAACAGGGGGCCUCAGCAGAGGCGUUCACGUCGCAGCCCCUGUCAGAUUCUGGUGAGGCUGCGAAUUCUGCUGUAUAUCUC [A13U A21G A57G U58G] | 0.2
UAACAGGGGGCCUCAGCAGAGGCGUUCACGUCGCAGCCCCUGUCUGAUUCUGGCGAAUCUGCGAAUUCUGCUGUAUAUCCC [A13U A21G A45U U54C U80C] | 0.32
UAACAGGGGGCCUCAGCAGAGGCGUUCACGUCGCAGCUCCUGUCAGACUCUGGUGAAUCUGCGAAUUCUGCUGUAUACCUC [A13U A21G C38U U48C U78C] | 0.06

Variant | self-cleavage
UAACAGGGGGCCUCAGCAGUAGCGUUCACGUCGCGGCCCCUGUCAGAUUCUGGUGAAUCUGCGAAUUCUGCUGUACAUCUC [A13U A20U A35G U76C] | 0.25
UAACAGGGGGCCUCAGCAGUAGCGUUCUCGUCGCAGCCCCAGUCAGAUCCUGGUGAAUCUGCGAACUCUGCUGUAUAUCUC [A13U A20U A28U U41A U49C U66C] | 0.06
UAACAGGGGGCCUCAGCAGAGGCCUUCACGUCGCAGCCCCUGUCAGAUUCUGGUGAAUCUGCGAAUUCUGCUGUAUAUCUC [A13U A21G G24C] | 0.05
UAACAGGGGGCCUCAGCAGUAGCGUUCACGUCGCAGCCCCUGUCAGAUUCUGGUGAAUCUGUGAAUUCUGCUGUAUAUCUC [A13U A20U C62U] | 0.06
UAACAGGGGGCCUCAGCAGAGGCGUUCACGUCGCAGCCCCUGUCAGAUUCUGGUGAAUCUGCGAAUUCUGAUGCAUAUCUC [A13U A21G C71A U74C] | 0.1
UAACAGGGGGCCUCAGCAGAGACGUGCACGUCGCAGCCCCAGUCUGAUUCUGGUGAAUCUGCGAAUUCUGCUGUAUAUCUC [A13U A21G G22A U26G U41A A45U] | 0.03
UAACAGGGGGCCUCAGCAGUAGCGUUCACGUCGCAGCCCCCGCCAGAUUCUGGUGAGUCUGCGAAUUCUGCUGUAUAUCUC [A13U A20U U41C U43C A57G] | 0.21
UAACAGGGGGCCUCAGCAGAGGCGUUCACGUUGCAGCCCCUGUCAGAUUCUGGUGAAUCUGCGAAUCCUGCUGUAUAUCUC [A13U A21G C32U U67C] | 0.1
UAACAGGGGGCCUCAGCAGUAGCGUUCACGUCGCGGCCCCUGUCAGAUUCUGGUGAAUCUGCGAAUUCAGCUGUAUAUCUC [A13U A20U A35G U69A] | 0.29
UAACAGGGGGCCUCAGCAGUAGCGUUCACGUCGCAGCCCCUGACGGAUUCUGGUGAAUCUGCGCGUUCUGCUGUAUAUCUC [A13U A20U U43A A45G A64C A65G] | 0.09
UAACAGGGGGCCUCAGCAGAGGCGUUCACGUCGCGGCCCCUGUCGGAUUCUGGCGAAUCUGCGAAUCCUGCUGUGUAUCUC [A13U A21G A35G A45G U54C U67C A75G] | 0.07
UAACAGGGGGCCUCAGCAGUAGCGUUCACGUCGCAGCCCCUGUCAGAUUCUGGCGAAUCUGCGAAUUCUGCUGUAAGUCUC [A13U A20U U54C U76A A77G] | 0.4
UAACAGGGGGCCUCAGCAGAGGCGAUCGCGUCGCAGCCCCUGUCAGACUCUGGUGAAUCUGCGAAUUCUGCCGUAUAUCUC [A13U A21G U25A A28G U48C U72C] | 0.22
UAACAGGGGGCCUCAGCAGUAGCGUUCACGUCGCGGCCCCUGUCAGAUUCUGGUGAAUCUGCGAGUUCUGCUGUACAUUUC [A13U A20U A35G A65G U76C C79U] | 0.34
UAACAGGGGGCCUCAGCAGUAGCGUUCACGUCGCAGCCCCUGUCAGAUUCUGGUGGAUCUGCGAAUUCUGCUGUAUAUCUC [A13U A20U A56G] | 0.2
UAACAGGGGGCCUCAGCAGAGGCGUUCACGCCGCGGCCCCUGUCCGAUUCUGGUGAAUCUGCGGAUUCUGCUGUGUAUCUC [A13U A21G U31C A35G A45C A64G A75G] | 0.07
UAACAGGGGGCCUCAGCAGUAGCGUUCACGUCGCAGCCCCUGUCAGGUUCUGGUGAAUCUGCGAAUUCUGCUGUAUAUCUC [A13U A20U A47G] | 0.16

Source: the RNAGym collection of RNA variant scans (doi:10.1093/nar/gkz1192)
